According to patent publication US20260008835A1 (SHANGHAI REGENELEAD THERAPIES, published 2026):

B1: PR1126 (R1D2-R2D3-linker-R2D2-R2D3 (F288Y)-Fc) (Fc fusion)
chain: SDTGRPFVEMYSEIPEIIHMTEGRELVIPCRVTSPNITVTLKKFPLDTLIPDGKRIIWDSRKGFIISNATYKEIGLLTCEATVNGHLYKTNYLTHRQTNTIIDVVLSPSHGIELSVGEKLVLNCTARTELNVGIDFNWEYPSSKHQHKKLVNRDLKTQSGSEMKKFLSTLTIDGVTRSDQGLYTCAASSGLMTKKNSTFVRVHEKGGGGSSPFIASVSDQHGVVYITENKNKTVVIPCLGSISNLNVSLCARYPEKRFVPDGNRISWDSKKGFTIPSYMISYAGMVFCEAKINDESYQSIMYIVVVVGYRIYDVVLSPSHGIELSVGEKLVLNCTARTELNVGIDFNWEYPSSKHQHKKLVNRDLKTQSGSEMKKYLSTLTIDGVTRSDQGLYTCAASSGLMTKKNSTFVRVHEK[human IgG1 Fc with changes not printed]
B2: PR1127 (R1D2-R2D3-linker-R2D2-R2D3 (L289Y)-Fc) (Fc fusion)
chain: SDTGRPFVEMYSEIPEIIHMTEGRELVIPCRVTSPNITVTLKKFPLDTLIPDGKRIIWDSRKGFIISNATYKEIGLLTCEATVNGHLYKTNYLTHRQTNTIIDVVLSPSHGIELSVGEKLVLNCTARTELNVGIDFNWEYPSSKHQHKKLVNRDLKTQSGSEMKKFLSTLTIDGVTRSDQGLYTCAASSGLMTKKNSTFVRVHEKGGGGSSPFIASVSDQHGVVYITENKNKTVVIPCLGSISNLNVSLCARYPEKRFVPDGNRISWDSKKGFTIPSYMISYAGMVFCEAKINDESYQSIMYIVVVVGYRIYDVVLSPSHGIELSVGEKLVLNCTARTELNVGIDFNWEYPSSKHQHKKLVNRDLKTQSGSEMKKFYSTLTIDGVTRSDQGLYTCAASSGLMTKKNSTFVRVHEK[human IgG1 Fc with changes not printed]
B3: PR1128 (R1D2-R2D3-linker-R2D2-R2D3 (L313Y)-Fc) (Fc fusion)
chain: SDTGRPFVEMYSEIPEIIHMTEGRELVIPCRVTSPNITVTLKKFPLDTLIPDGKRIIWDSRKGFIISNATYKEIGLLTCEATVNGHLYKTNYLTHRQTNTIIDVVLSPSHGIELSVGEKLVLNCTARTELNVGIDFNWEYPSSKHQHKKLVNRDLKTQSGSEMKKFLSTLTIDGVTRSDQGLYTCAASSGLMTKKNSTFVRVHEKGGGGSSPFIASVSDQHGVVYITENKNKTVVIPCLGSISNLNVSLCARYPEKRFVPDGNRISWDSKKGFTIPSYMISYAGMVFCEAKINDESYQSIMYIVVVVGYRIYDVVLSPSHGIELSVGEKLVLNCTARTELNVGIDFNWEYPSSKHQHKKLVNRDLKTQSGSEMKKFLSTLTIDGVTRSDQGLYTCAASSGYMTKKNSTFVRVHEK[human IgG1 Fc with changes not printed]
B4: PR1129 (R1D2-R2D3-linker-R2D2-R2D3 (M314S)-Fc) (Fc fusion)
chain: SDTGRPFVEMYSEIPEIIHMTEGRELVIPCRVTSPNITVTLKKFPLDTLIPDGKRIIWDSRKGFIISNATYKEIGLLTCEATVNGHLYKTNYLTHRQTNTIIDVVLSPSHGIELSVGEKLVLNCTARTELNVGIDFNWEYPSSKHQHKKLVNRDLKTQSGSEMKKFLSTLTIDGVTRSDQGLYTCAASSGLMTKKNSTFVRVHEKGGGGSSPFIASVSDQHGVVYITENKNKTVVIPCLGSISNLNVSLCARYPEKRFVPDGNRISWDSKKGFTIPSYMISYAGMVFCEAKINDESYQSIMYIVVVVGYRIYDVVLSPSHGIELSVGEKLVLNCTARTELNVGIDFNWEYPSSKHQHKKLVNRDLKTQSGSEMKKFLSTLTIDGVTRSDQGLYTCAASSGLSTKKNSTFVRVHEK[human IgG1 Fc with changes not printed]
B5: PR1130 (R1D2-R2D3-linker-R2D2-R2D3 (M314Q)-Fc) (Fc fusion)
chain: SDTGRPFVEMYSEIPEIIHMTEGRELVIPCRVTSPNITVTLKKFPLDTLIPDGKRIIWDSRKGFIISNATYKEIGLLTCEATVNGHLYKTNYLTHRQTNTIIDVVLSPSHGIELSVGEKLVLNCTARTELNVGIDFNWEYPSSKHQHKKLVNRDLKTQSGSEMKKFLSTLTIDGVTRSDQGLYTCAASSGLMTKKNSTFVRVHEKGGGGSSPFIASVSDQHGVVYITENKNKTVVIPCLGSISNLNVSLCARYPEKRFVPDGNRISWDSKKGFTIPSYMISYAGMVFCEAKINDESYQSIMYIVVVVGYRIYDVVLSPSHGIELSVGEKLVLNCTARTELNVGIDFNWEYPSSKHQHKKLVNRDLKTQSGSEMKKFLSTLTIDGVTRSDQGLYTCAASSGLQTKKNSTFVRVHEK[human IgG1 Fc with changes not printed]
B6: PR1132 (R1D2-R2D3-linker-R2D2-R2D3 (L277R/L289Y)-Fc) (Fc fusion)
chain: SDTGRPFVEMYSEIPEIIHMTEGRELVIPCRVTSPNITVTLKKFPLDTLIPDGKRIIWDSRKGFIISNATYKEIGLLTCEATVNGHLYKTNYLTHRQTNTIIDVVLSPSHGIELSVGEKLVLNCTARTELNVGIDFNWEYPSSKHQHKKLVNRDLKTQSGSEMKKFLSTLTIDGVTRSDQGLYTCAASSGLMTKKNSTFVRVHEKGGGGSSPFIASVSDQHGVVYITENKNKTVVIPCLGSISNLNVSLCARYPEKRFVPDGNRISWDSKKGFTIPSYMISYAGMVFCEAKINDESYQSIMYIVVVVGYRIYDVVLSPSHGIELSVGEKLVLNCTARTELNVGIDFNWEYPSSKHQHKKLVNRDRKTQSGSEMKKFYSTLTIDGVTRSDQGLYTCAASSGLMTKKNSTFVRVHEK[human IgG1 Fc with changes not printed]
B7: PR1010 (R1D2-R2D3-linker-R2D2-R2D3-Fc) (Fc fusion)
chain: SDTGRPFVEMYSEIPEIIHMTEGRELVIPCRVTSPNITVTLKKFPLDTLIPDGKRIIWDSRKGFIISNATYKEIGLLTCEATVNGHLYKTNYLTHRQTNTIIDVVLSPSHGIELSVGEKLVLNCTARTELNVGIDFNWEYPSSKHQHKKLVNRDLKTQSGSEMKKFLSTLTIDGVTRSDQGLYTCAASSGLMTKKNSTFVRVHEKGGGGSSPFIASVSDQHGVVYITENKNKTVVIPCLGSISNLNVSLCARYPEKRFVPDGNRISWDSKKGFTIPSYMISYAGMVFCEAKINDESYQSIMYIVVVVGYRIYDVVLSPSHGIELSVGEKLVLNCTARTELNVGIDFNWEYPSSKHQHKKLVNRDLKTQSGSEMKKFLSTLTIDGVTRSDQGLYTCAASSGLMTKKNSTFVRVHEK[human IgG1 Fc with changes not printed]
B8: PR1135 (R1D2-R2D3-linker-R2D2(Y221S/R222K)-R2D3-Fc) (Fc fusion)
chain: SDTGRPFVEMYSEIPEIIHMTEGRELVIPCRVTSPNITVTLKKFPLDTLIPDGKRIIWDSRKGFIISNATYKEIGLLTCEATVNGHLYKTNYLTHRQTNTIIDVVLSPSHGIELSVGEKLVLNCTARTELNVGIDFNWEYPSSKHQHKKLVNRDLKTQSGSEMKKFLSTLTIDGVTRSDQGLYTCAASSGLMTKKNSTFVRVHEKGGGGSSPFIASVSDQHGVVYITENKNKTVVIPCLGSISNLNVSLCARYPEKRFVPDGNRISWDSKKGFTIPSYMISYAGMVFCEAKINDESYQSIMYIVVVVGSKIYDVVLSPSHGIELSVGEKLVLNCTARTELNVGIDFNWEYPSSKHQHKKLVNRDLKTQSGSEMKKFLSTLTIDGVTRSDQGLYTCAASSGLMTKKNSTFVRVHEK[human IgG1 Fc with changes not printed]
B9: PR1136 (R1D2-R2D3-linker-R2D2-R2D3 (L313R)-Fc) (Fc fusion)
chain: SDTGRPFVEMYSEIPEIIHMTEGRELVIPCRVTSPNITVTLKKFPLDTLIPDGKRIIWDSRKGFIISNATYKEIGLLTCEATVNGHLYKTNYLTHRQTNTIIDVVLSPSHGIELSVGEKLVLNCTARTELNVGIDFNWEYPSSKHQHKKLVNRDLKTQSGSEMKKFLSTLTIDGVTRSDQGLYTCAASSGLMTKKNSTFVRVHEKGGGGSSPFIASVSDQHGVVYITENKNKTVVIPCLGSISNLNVSLCARYPEKRFVPDGNRISWDSKKGFTIPSYMISYAGMVFCEAKINDESYQSIMYIVVVVGYRIYDVVLSPSHGIELSVGEKLVLNCTARTELNVGIDFNWEYPSSKHQHKKLVNRDLKTQSGSEMKKFLSTLTIDGVTRSDQGLYTCAASSGRMTKKNSTFVRVHEK[human IgG1 Fc with changes not printed]
B10: PR1094 (R1D2-R2D3-linker-R2D2 (C162V)-R2D3-Fc) (Fc fusion)
chain: SDTGRPFVEMYSEIPEIIHMTEGRELVIPCRVTSPNITVTLKKFPLDTLIPDGKRIIWDSRKGFIISNATYKEIGLLTCEATVNGHLYKTNYLTHRQTNTIIDVVLSPSHGIELSVGEKLVLNCTARTELNVGIDFNWEYPSSKHQHKKLVNRDLKTQSGSEMKKFLSTLTIDGVTRSDQGLYTCAASSGLMTKKNSTFVRVHEKGGGGSSPFIASVSDQHGVVYITENKNKTVVIPCLGSISNLNVSLVARYPEKRFVPDGNRISWDSKKGFTIPSYMISYAGMVFCEAKINDESYQSIMYIVVVVGYRIYDVVLSPSHGIELSVGEKLVLNCTARTELNVGIDFNWEYPSSKHQHKKLVNRDLKTQSGSEMKKFLSTLTIDGVTRSDQGLYTCAASSGLMTKKNSTFVRVHEK[human IgG1 Fc with changes not printed]
B11: PR1165 (R1D2-R2D3-linker-R2D2(C162I)-R2D3-Fc) (Fc fusion)
chain: SDTGRPFVEMYSEIPEIIHMTEGRELVIPCRVTSPNITVTLKKFPLDTLIPDGKRIIWDSRKGFIISNATYKEIGLLTCEATVNGHLYKTNYLTHRQTNTIIDVVLSPSHGIELSVGEKLVLNCTARTELNVGIDFNWEYPSSKHQHKKLVNRDLKTQSGSEMKKFLSTLTIDGVTRSDQGLYTCAASSGLMTKKNSTFVRVHEKGGGGSSPFIASVSDQHGVVYITENKNKTVVIPCLGSISNLNVSLIARYPEKRFVPDGNRISWDSKKGFTIPSYMISYAGMVFCEAKINDESYQSIMYIVVVVGYRIYDVVLSPSHGIELSVGEKLVLNCTARTELNVGIDFNWEYPSSKHQHKKLVNRDLKTQSGSEMKKFLSTLTIDGVTRSDQGLYTCAASSGLMTKKNSTFVRVHEK[human IgG1 Fc with changes not printed]

Target: T1, Human VEGF-A protein (human, UniProt P15692-4 27-191, limits assumed)
T1 sequence (looked up): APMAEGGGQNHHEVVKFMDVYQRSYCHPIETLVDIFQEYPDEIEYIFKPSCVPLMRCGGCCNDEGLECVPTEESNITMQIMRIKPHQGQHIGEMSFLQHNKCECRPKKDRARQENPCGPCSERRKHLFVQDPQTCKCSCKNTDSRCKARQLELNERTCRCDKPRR
Test: cell-based or functional assay

In order of falling “VEGF-A IC50; VEGF-A-induced NFAT-RE-luc2P/KDR HEK293 reporter gene expression” value:
1. B7  2.71 nM
2. B11  0.92 nM
3. B1  0.7 nM
4. B4  0.67 nM
5. B2  0.52 nM
6. B8  0.5 nM
7. B5  0.45 nM
8. B3  0.42 nM
9. B6  0.42 nM
10. B10  0.34 nM
11. B9  0.14 nM
